Measured values as given in PMC4336329 (PLoS ONE, 2015).
Hit rate of the full screen: of about 310,000 compounds, about 2,200 (0.71%) showed an effect of 50% or more. Effects have a minus sign here. This is one part of the list.

The molecules below were run against human ether-à-go-go-related gene (hERG) potassium channel (human, UniProt Q12809) (assay: primary screen, population patch clamp on CHO cells stably expressing hERG).
human ether-à-go-go-related gene (hERG) potassium channel, sequence (Q12809 whole entry, looked up): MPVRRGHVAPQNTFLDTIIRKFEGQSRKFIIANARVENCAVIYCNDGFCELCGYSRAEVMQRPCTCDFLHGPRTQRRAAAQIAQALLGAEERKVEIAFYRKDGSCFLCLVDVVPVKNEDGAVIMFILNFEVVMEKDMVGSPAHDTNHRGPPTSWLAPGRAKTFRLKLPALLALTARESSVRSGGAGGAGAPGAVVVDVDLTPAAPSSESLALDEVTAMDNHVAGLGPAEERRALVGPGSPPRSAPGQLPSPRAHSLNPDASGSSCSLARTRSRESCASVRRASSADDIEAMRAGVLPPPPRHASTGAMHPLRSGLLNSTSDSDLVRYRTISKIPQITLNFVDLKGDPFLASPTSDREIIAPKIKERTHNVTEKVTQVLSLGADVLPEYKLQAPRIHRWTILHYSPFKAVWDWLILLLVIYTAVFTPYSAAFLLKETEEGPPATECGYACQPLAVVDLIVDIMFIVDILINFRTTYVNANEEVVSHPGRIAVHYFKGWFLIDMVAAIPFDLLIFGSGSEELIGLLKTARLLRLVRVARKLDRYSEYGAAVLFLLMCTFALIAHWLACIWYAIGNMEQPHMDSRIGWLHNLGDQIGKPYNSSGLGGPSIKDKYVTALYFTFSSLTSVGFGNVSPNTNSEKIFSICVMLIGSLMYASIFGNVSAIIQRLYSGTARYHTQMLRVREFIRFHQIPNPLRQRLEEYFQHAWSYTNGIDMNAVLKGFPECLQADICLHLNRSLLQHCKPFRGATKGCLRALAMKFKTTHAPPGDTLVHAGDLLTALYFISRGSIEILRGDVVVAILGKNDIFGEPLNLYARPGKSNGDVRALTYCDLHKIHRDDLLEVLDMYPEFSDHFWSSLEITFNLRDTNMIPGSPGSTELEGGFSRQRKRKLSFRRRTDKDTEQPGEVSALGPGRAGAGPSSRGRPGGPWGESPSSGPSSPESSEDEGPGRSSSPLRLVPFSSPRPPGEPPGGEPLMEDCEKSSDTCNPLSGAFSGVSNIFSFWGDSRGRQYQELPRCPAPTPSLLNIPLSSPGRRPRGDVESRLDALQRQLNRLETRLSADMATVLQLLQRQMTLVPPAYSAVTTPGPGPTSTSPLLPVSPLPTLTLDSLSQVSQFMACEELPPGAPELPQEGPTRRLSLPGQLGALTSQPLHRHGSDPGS

| Compound | hERG current change (%, negative = inhibition) at 1uM [%] |
| --- | --- |
| O=C1c2ccccc2C(=O)N1Cc1nc2ccccc2c(=O)n1-c1ccccn1 | 8.72 |
| Cc1ccc2c(c1)NC(=O)c1cc([N+](=O)[O-])ccc1O2 | 17.1 |
| N#Cc1ccc(Cl)cc1NC(=O)COC(=O)c1ccc(S(=O)(=O)N2CCCC2)cc1 | 6.03 |
| Cc1cccc(C)c1NC(=O)Cn1nc(C)n2cccc2c1=O | 5.51 |
| CCOC(=O)/C=c1\s/c(=C\c2ccc(C)cc2)c(=O)n1CC(=O)NCc1ccco1 | 12.5 |
| O=C(NCCc1c[nH]c2ccccc12)C(=O)c1c[nH]c2ccccc12 | 7.17 |
| O=C(O)C1CC=CCC1C(=O)NNS(=O)(=O)c1ccccc1 (stereo not drawn) | 11.6 |
| COCCn1c(C)cc(C(=O)COC(=O)c2cncc(Br)c2)c1C | -7.42 |
| O=C(O)c1ccc(Cn2cc(/C=C\[N+](=O)[O-])c3ccccc32)o1 | 16.3 |
| COc1cccc(CN2CCCC(CNC(=O)c3ccc(F)cc3)C2)c1OC (stereo not drawn) | -12.6 |
| Cc1cc(NC(=O)COC(=O)[C@H](C)NC(=O)c2ccccc2)no1 | 3.32 |
| COc1ccc(CNC(=O)CCC(=O)N2C[C@H]3C[C@H](C2)c2cccc(=O)n2C3)cc1 | 9.09 |
| Cn1ncc(Br)c1C(=O)OCC(=O)Nc1nc(-c2ccccc2)cs1 | 11.5 |
| COC(=O)c1c(NC(=O)COC(=O)[C@@H](NS(=O)(=O)c2ccccc2)C(C)C)sc2c1CCC2 | 0.445 |
| Cc1ccccc1NS(=O)(=O)c1cc(S(C)(=O)=O)ccc1Cl | 4.74 |
| CC(c1ccccc1)n1c(SCC(=O)Nc2ccccc2)n[nH]c1=O (stereo not drawn) | 9.19 |
| O=C(NCCN1CCc2ccccc2C1)C1CC(=O)N(C2CCCC2)C1 (stereo not drawn) | 14.8 |
| COC(=O)c1ccc(C2NC(=O)c3ccccc3O2)cc1 (stereo not drawn) | 10.5 |
| CN(C)C(=O)N1CCC(C(=O)NCC2CCCO2)CC1 (stereo not drawn) | -0.682 |
| O=C(NCc1ccccc1)c1onc(CSc2ccc(Cl)cc2)c1C(=O)NCC1CC1 | 7.15 |
| O=S(=O)(Nc1ccncc1)c1ccc(Cl)c(Cl)c1 | 13.4 |
| COCCCn1c(SCC(=O)Nc2ccccc2F)nnc1-c1ccoc1C | 10.3 |
| COc1ccccc1C(=O)Nc1ccnn1C1CCN(C)CC1 | 4.47 |
| O=C(Cc1ccccc1)Nn1cnc2ccccc21 | 11.8 |
